Structures are written as SMILES. Several values for one entry are separate records, joined by “and”; a condition that tells them apart may be missing. Identical values can stand only once. In all, about 16,000 compounds went through this assay and about 40 (0.2%) were called active. Not shown: some 1% with an inconclusive outcome. Calls come from the whole dose curve; as a rule, active = well fitted activation curve with a large enough effect; inconclusive = small, poorly fitted or top-dose-only effect, or another doubt; inactive = no such curve, though single readings can be large or run the other way. The list shows a part of the results.
% is set by controls: 0 for no effect and ±100 for the full control effect.

The assay deals with Rap guanine nucleotide exchange factor 4 (Homo sapiens) (UniProt Q8WZA2). Briefly: Validation qHTS for agonist of cAMP-regulated guanine nucleotide exchange factor 4 (EPAC2).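 Note: exchange makes BODIPY-GDP fluorescence drop when released from Rap1B; series mostly up to about 150 µM.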 The following applies: EPAC2 Rap1B BODIPY-GDP exchange, fluorescence; activation: hits give high values. The procedure, abridged: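 Signal normalized against 6.5 mM cAMP as agonist control. Mix of EPAC2 (100 nM), RAP1B-BODIPY-GDP (250 nM) and GDP (50 uM) was read kinetically at 480/540 nm, every 5 min over 30 min, after 5 min room-temperature incubation with compound.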
Sequence of UniProt Q8WZA2 (Q8WZA2 whole entry, looked up): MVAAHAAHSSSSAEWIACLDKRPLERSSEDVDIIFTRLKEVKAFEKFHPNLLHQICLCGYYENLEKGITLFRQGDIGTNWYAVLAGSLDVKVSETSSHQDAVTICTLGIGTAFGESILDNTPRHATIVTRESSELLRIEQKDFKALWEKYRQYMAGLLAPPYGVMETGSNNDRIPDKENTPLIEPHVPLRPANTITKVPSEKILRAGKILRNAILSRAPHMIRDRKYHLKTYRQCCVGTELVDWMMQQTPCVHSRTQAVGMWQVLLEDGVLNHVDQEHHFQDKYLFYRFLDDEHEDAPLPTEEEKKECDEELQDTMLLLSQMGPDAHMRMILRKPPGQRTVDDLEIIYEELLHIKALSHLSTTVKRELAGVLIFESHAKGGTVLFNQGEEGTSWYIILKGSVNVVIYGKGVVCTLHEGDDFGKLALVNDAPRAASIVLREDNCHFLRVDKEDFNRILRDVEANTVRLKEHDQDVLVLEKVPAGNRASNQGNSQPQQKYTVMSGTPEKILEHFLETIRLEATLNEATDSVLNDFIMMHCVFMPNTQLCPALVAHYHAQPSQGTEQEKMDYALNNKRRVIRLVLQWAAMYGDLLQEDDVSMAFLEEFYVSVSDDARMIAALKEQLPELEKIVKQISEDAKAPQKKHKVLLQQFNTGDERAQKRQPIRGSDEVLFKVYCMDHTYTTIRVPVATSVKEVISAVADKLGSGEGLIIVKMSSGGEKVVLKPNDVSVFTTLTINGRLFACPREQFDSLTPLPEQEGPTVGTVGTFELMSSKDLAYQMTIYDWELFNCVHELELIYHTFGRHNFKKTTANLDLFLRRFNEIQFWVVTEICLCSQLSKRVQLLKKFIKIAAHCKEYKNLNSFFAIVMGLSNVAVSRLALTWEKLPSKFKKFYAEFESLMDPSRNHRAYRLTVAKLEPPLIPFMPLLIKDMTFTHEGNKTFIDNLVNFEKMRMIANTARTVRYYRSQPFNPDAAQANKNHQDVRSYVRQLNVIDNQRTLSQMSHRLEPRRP
In the case of `O=C(c1ccco1)N1CCC2(CCCN(c3ccccc3)C2)CC1`, the activation was inactive: -14.4%.
Turning to `CCC[C@H]1COCCS(=O)(=O)N1Cc1ccc(F)cc1`, the activation was inactive: -24.9%.
For `Cc1c(C(=O)N(C)C2CCOC2)sc2ncnc(NCc3ccc4c(c3)OCO4)c12` (stereo not drawn) the value was inactive: -6.46%.
For `O=S(=O)(c1cccc2cnccc12)N1CCCNCC1` the value was inactive: -7.66% and inactive: -21.6%; for `COc1cc2nc(N3CCCN(C)CC3)nc(NC3CCN(Cc4ccccc4)CC3)c2cc1OC`, inactive: -7.85%.
On to `O=c1[nH]/c(=C/c2ccc3c(c2)OCO3)c(=O)[nH]/c1=C/c1ccc2c(c1)OCO2`, for which the activation is inactive: -18.9%.
As to `COc1ccc(CN2CCCC(c3nc(-c4ccncc4)ncc3-c3ccccc3)C2)cc1OC` (stereo not drawn), the activation was inactive: 4.37%.
For the molecule `CCC(C)(C)C(=O)O[C@H]1C[C@@H](C)C=C2C=C[C@H](C)[C@H](CC[C@@H]3C[C@@H](O)CC(=O)O3)[C@H]21`, the activation was inactive: -8.54%.
`CC(C)[C@H]1COCCS(=O)(=O)N1Cc1ccccc1`: the activation is inactive: -40.8%.
For `CN(C)c1ccc(-c2cc(N(C)Cc3ccco3)ncn2)cc1` the value was inactive: -3.89%; for `COc1ccc(C2Sc3ccccc3N(CCN(C)C)C(=O)C2OC(C)=O)cc1` (stereo not drawn), inactive: -4.06%.
Consider `CCC(c1ccccc1)c1noc(CCN(CC)CC)n1` (stereo not drawn), for which the activation is inactive: 20.5%.
For `CC(C)(C)CC(C)(C)N=C1Nc2ccc(Cl)cc2NC12C[C@H]1CCC(=O)N3CC[C@@H](C2)[C@@H]13` (stereo partly drawn), the activation was inactive: -17.4%.
Then `CCCCS(=N)(=O)CCC(N)C(=O)O` (stereo not drawn), with inactive: -14.4% and inactive: -36%; and `CC(=O)O[C@H]1CC2(C)[C@@H](C[C@@H](O)[C@H]3[C@@]4(C)CC[C@@H](O)[C@@H](C)[C@@H]4CC[C@@]32C)C1=C(CCC=C(C)C)C(=O)O` (stereo partly drawn), with inactive: -35.7%; and `COC(=O)C1CCCCN1Cc1ccc2c(c1)CN(C1CCSCC1)CCO2` (stereo not drawn), with inactive: 1.8%.
For the molecule `COc1cccc(OC)c1OCCNCC1CSc2ccccc2O1` (stereo not drawn), the activation was inactive: -20.1%.
Then `C[C@@H]1CN(c2c(F)c(F)c3c(=O)c(C(=O)O)cn(C4CC4)c3c2F)C[C@H](C)N1`, with inactive: 8.93%; and `Cc1cc(=O)[nH]c2cc(N)ccc12`, with inactive: -12.6%; and `Cc1cnc(C(=O)NCc2c(C)ncc3c2CCN(C(=O)/C=C/c2cccs2)C3)cn1`, with inactive: 3.19%.
For the molecule `O=c1c(-c2cccs2)nc2cncnc2n1C1CC1`, the activation was inactive: -16.6%.
With `O=C(NCC1CCC2(CCN(Cc3cnn(-c4ccc(F)cc4)c3)CC2)O1)c1ccccc1` (stereo not drawn), the activation is inactive: 6.38%.
Take `O=C(Nc1ccccc1)C12CC1/C(=N\O)c1ccccc1O2` (stereo not drawn): the activation is inactive: -4.1%.
For `CC(=O)Oc1ccc(C(c2ccc(OC(C)=O)cc2)c2ccccn2)cc1` the value was inactive: -9.04% and inactive: -36.9%; for `CN(C)C(=O)COC(=O)Cc1ccc(OC(=O)c2ccc(N=C(N)N)cc2)cc1`, inactive: 3.81%.
In the case of `Cc1ncc2c(c1CNC(=O)/C=C/c1cccs1)CCN(C(=O)c1noc3c1CCCC3)C2`, the activation was inactive: -5.35%.
Regarding `O=c1c(CCc2ccccc2)nc2cnc(Oc3ccccc3)nc2n1C1CC1`, the activation is inactive: 1.28%.
`O=[N+]([O-])c1ccc(O)c2ncccc12`: the activation was inactive: 11.4%.
In the case of `COc1cccc(CNC(=O)c2c(OC)cc(=O)n3c2CCN(C(=O)C2CC24CCCCC4)CC3)c1` (stereo not drawn), the activation was inactive: -1.78%.
`COc1cc(CNC(=O)CCCCCCC(C)C)ccc1O`: the activation was inactive: -3.86% and inactive: -86.5%.
As to `O=C(O)/C=C/c1ccc2c(c1)S(=O)(=O)N(C1CCCC1)[C@H]2CC(=O)O`, the activation was inactive: -14.8%.
With `c1ccc(CN2CCN(Cc3ccc4c(c3)CN(Cc3c[nH]c5ccccc35)CCO4)CC2)nc1`, the activation is inactive: -13.8%.
Turning to `Cc1ccc(CC(Cc2nc3ccccc3[nH]2)c2nc3ccccc3[nH]2)cc1` (stereo not drawn), the activation is inactive: -9.83%.
Consider `O=C(NCCc1ccccc1)[C@@H]1CC=C[C@@H]2CCN(Cc3ccc(Cl)c(Cl)c3)C(=O)[C@@H]21`, for which the activation was inactive: -20%.
Then `Cc1ncc2c(c1CNC(=O)/C=C/c1cccs1)CCN(C(=O)C1CCCO1)C2` (stereo not drawn), with inactive: 2.68%; and `C1CCC(NC(=NC2C3CC4CC(C3)CC2C4)N2CCOCC2)CC1` (stereo not drawn), with inactive: 5.03% and inactive: -1.04%.
For the molecule `O=C(O)COc1ccccc1/C=N/NC(=O)c1ccncc1`, the activation is inactive: -1.83%.
Regarding `NC(=O)c1ncn(C2OC(CO)C(O)C2O)c1N` (stereo not drawn), the activation is inactive: -16.6%.
Then `Cc1oc(-c2ccccc2NC(=O)C2CCCO2)nc1CNC(=O)c1[nH]c2c(C)ccc(C)c2c1C` (stereo not drawn), with inactive: 8.6%.
Turning to `CC(/C=C/C=C(\C)C(=O)O[C@@H]1O[C@H](CO[C@@H]2O[C@H](CO)[C@@H](O)[C@H](O)[C@H]2O)[C@@H](O)[C@H](O)[C@H]1O)=C\C=C\C=C(C)\C=C\C=C(/C)C(=O)O[C@@H]1O[C@H](CO[C@@H]2O[C@H](CO)[C@@H](O)[C@H](O)[C@H]2O)[C@@H](O)[C@H](O)[C@H]1O`, the activation is inactive: -26.4%.
On to `CCCc1nn(C)c2c(=O)[nH]c(-c3cc(S(=O)(=O)N4CCN(C)CC4)ccc3OCC)nc12`, for which the activation was inactive: -4.32% and inactive: -13.8%.
With `CN1CCN(c2ncc3ncc(=O)n(C4CC4)c3n2)CC1`, the activation is inactive: 10.9%.
Turning to `COc1cc(O)c(C(=O)/C=C/c2ccccc2)c(OC)c1`, the activation was inactive: 12.8%.
As for `CN(C)C(=O)c1ccc(-c2nc(NC3CCNCC3)c3ccccc3n2)cc1`, the activation is inactive: -19.4%.
Then `COc1cc(-c2noc(C)c2C#CC2(N)CCCCC2)cc(OC)c1OC`, with inactive: -9.27%; and `CCCCOC(=O)c1cc2c(cn1)[nH]c1ccccc12`, with inactive: -31.7% and inactive: 7.86% and inactive: -9.86%.
`O=C(O)c1ccccc1Nc1cccc(C(F)(F)F)c1`: the activation is inactive: -18.2% and inactive: -12.3%.
Take `OCCc1ccccc1`: the activation is inactive: -1.25%.
Take `O=C(c1ccc(F)cc1)C1CCN(CCn2c(=S)[nH]c3ccccc3c2=O)CC1`: the activation is inactive: -25.6%.
`COc1cc(C/C=C\c2ccccc2)c(OC)cc1O`: the activation was inactive: -36.7%.
For `COc1ccc(CCCO[C@@H](Cn2ccnc2)c2ccc(OC)cc2)cc1` the value was inactive: -10.1%.
For the molecule `CC(C)NC(=O)N1CC[C@@]2(CCCN(C(=O)c3cnccn3)C2)C1`, the activation is inactive: -17%.
For the molecule `O=C(NCCN1CCOCC1)c1cnn(-c2nccc(-c3ccccc3F)n2)c1C1CC1`, the activation is inactive: 2.5%.
Then `O=c1c(CCc2ccccc2)nc2cnc(N3CCOCC3)nc2n1C[C@H]1CCCO1`, with inactive: -16.2%.
In the case of `O=C(c1cnsn1)N1CCOc2ccc(CN3CCOCC3)cc2C1`, the activation was inactive: 3.85%.
As to `CS(=O)(=O)N1CCC2(CCN(c3ccccn3)CC2)CC1`, the activation was inactive: -2.33%.
Consider `COc1cccc(CNC(=O)c2c(OC)cc(=O)n3c2CCN(C(=O)c2ccc(C)nc2)CC3)c1`, for which the activation is inactive: 0.453%.
For the molecule `CCCCC/C=C\C/C=C\C/C=C\CCCCC(=O)O`, the activation was inactive: -19.5%.
Turning to `O=C(O)Cc1cc2ccccc2nc1C(=O)O`, the activation is inactive: -8.23%.
On to `COCC1CCCN(Cc2ccc3c(c2)CN(C(=O)c2ccc(OC)nc2OC)CCO3)C1` (stereo not drawn), for which the activation was inactive: -17.1%.
Consider `N#Cc1cccc(-c2nccc(-n3ccnc3)n2)c1`, for which the activation is inactive: 1.09%.
Then `COCCNc1nc(-c2ccccc2OC)nc2ccccc12`, with inactive: 2.95%; and `Cc1cccc(C)c1OCC(=O)N[C@@H](Cc1ccccc1)[C@@H](O)C[C@H](Cc1ccccc1)NC(=O)[C@H](C(C)C)N1CCCNC1=O`, with inactive: -1.22%.
As for `CN(Cc1ccco1)Cc1cc(-c2ccnc3cc(Cl)ccc23)ccc1O`, the activation was inactive: -1.43%.
For the molecule `Nc1ncnc2c1ncn2[C@H]1O[C@@H](CSCC[C@@H](N)C(=O)O)[C@H](O)[C@@H]1O`, the activation was inactive: 10.3%.
As to `O=C1O[C@H]([C@@H](O)CO)C(O)=C1O`, the activation is inactive: -0.197% and inactive: -3.05%.
For `CN(C)c1ccc(C(=C2C=CC(=[N+](C)C)C=C2)c2ccccc2)cc1` the value was inactive: -24.7%.
For `COCCn1c(=O)c(-c2ccccc2)nc2cnc(N3CCN(C)CC3)nc21` the value was inactive: -4.94%; for `CCNCCCNCCCNCCCNCC`, inactive: -20.4%.
Regarding `Clc1ccc(C(c2ccccc2Cl)C(Cl)Cl)cc1` (stereo not drawn), the activation was inactive: -34% and inactive: 17.4% and inactive: -1.36%.
As to `CN(C)c1ccc(-c2c(-c3ccc4c(c3)OCO4)noc2-c2ccsc2)cn1`, the activation was inactive: -12.9%.
As for `CC(N)(C(=O)O)c1ccc(-c2nn[nH]n2)cc1` (stereo not drawn), the activation was inactive: -4.44%.
With `O=C(NCC1CCC2(CCN(Cc3ccc4ncccc4c3)CC2)O1)C1CCCO1` (stereo not drawn), the activation is inactive: -1.31%.
With `COc1ccc(C(=O)N(Cc2cc3cccc(C)c3nc2N(C)C)CC2CCCO2)cc1` (stereo not drawn), the activation was inactive: -3.26%.
For the molecule `Cc1ccnc2ccc3ccccc3c12`, the activation was inactive: -6.66%.
For `O=C(Nc1cccc(F)c1)N1CC[C@@]2(CCCN(C(=O)c3cnccn3)C2)C1`, the activation was inactive: -17.9%.
As for `COc1ncc2nc(-c3cn(C)c4ccccc34)c(=O)n(C)c2n1`, the activation is inactive: -9.74%.
For the molecule `CCCCN1CCCC[C@H]1C(=O)Nc1c(C)cccc1C`, the activation was inactive: -2.2%.
In the case of `Clc1ccccc1-c1nc(NCc2cccs2)c2ccccc2n1`, the activation is inactive: 6.74%.
As to `COc1ccc(CNc2cc(-c3ccccc3C)ncn2)c(OC)c1`, the activation was inactive: -5.51%.
As to `CCOc1nc2cccc(C(=O)O)c2n1Cc1ccc(-c2ccccc2-c2nn[nH]n2)cc1`, the activation is inactive: -14.1%.
Take `CS(=O)(=O)c1ccc(-c2cccc3c2OC(CNC(=O)c2cc(C4CC4)[nH]n2)C3)cc1` (stereo not drawn): the activation is inactive: -12.4%.
`O=C1CC[C@@H](O)CCN1CC[C@H](Sc1ccccc1)c1ccccc1`: the activation is inactive: -7.18%.

Values taken from PubChem BioAssay AID1645887 (National Center for Advancing Translational Sciences (NCATS), 2021).
